# Source: the supplement of paper PMC8728848
# The list shows a part of the results.
# B1: UEA-I (Ulex europaeus), P22972 (protein)
# chain: SDDLSFKFKNFSQNGKDLSFQGDASVIETGVLQLNKVGNNLPDETGGIARYIAPIHIWNCNTGEVASFITSFSFFMETSANPKAATDGLTFFLAPPDSPLRRAGGYFGLFEDTKDNDSSYQTVAVEFDTIGSPVNFDDPGFPHIGIDVNRVKSINAERWNKRYGLNNVANVEIIYEASSKTLTASLTYPSDQTSISVTSIVDLKEILPEWVSVGFSGGTYIGRQATHEVLNWYFTSNLIN
# How the values were obtained:
# Assay in all cases: glycan array binding signal (z-score within array); higher = stronger binding
# Settings in all cases: glycan notation: IUPAC condensed, linker removed
# [1] = biological target: GlcNAc(b1-6)Gal(b1-4)GlcNAc
# In short: (§1)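 The binding signal is a Z-score computed within each array. Data were drawn from 3228 arrays in the Consortium for Functional Glycomics database, restricted to those with a known protein sequence. Scores were averaged over arrays of the same protein sequence at different concentrations or buffers, and over linkers, and negative values can be taken as non-binding.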
# [2] = biological target: GlcNAc(b1-6)GalNAc
# In short: as §1
# [3] = biological target: GlcNAc3Prop(b1-4)GlcNAc
# In short: as §1
# [4] = biological target: GlcNAc6S(b1-3)Gal(b1-4)GlcNAc
# In short: as §1
# [5] = biological target: Kdn(a2-3)Gal(b1-3)GalNAc
# In short: as §1
# [6] = biological target: Kdn(a2-3)Gal(b1-3)GlcNAc
# In short: as §1
# [7] = biological target: Kdn(a2-3)Gal(b1-4)Glc
# In short: as §1
# [8] = biological target: Kdn(a2-3)Gal(b1-4)GlcNAc
# In short: as §1
# [9] = biological target: Kdn(a2-3)Gal(b1-4)[Fuc(a1-3)]GlcNAc
# In short: as §1
# [10] = biological target: Kdn(a2-6)Gal(b1-4)GlcNAc
# In short: as §1
# [11] = biological target: Man(a1-2)Man(a1-2)Man(a1-3)Man
# In short: as §1
# [12] = biological target: Man(a1-2)Man(a1-2)Man(a1-6)[Man(a1-3)]Man
# In short: as §1
# [13] = biological target: Man(a1-2)Man(a1-3)Man
# In short: as §1
# [14] = biological target: Man(a1-2)Man(a1-3)[Man(a1-2)Man(a1-6)]Man
# In short: as §1
# [15] = biological target: Man(a1-2)Man(a1-3)[Man(a1-2)Man(a1-6)]Man(a1-6)[Man(a1-2)Man(a1-2)Man(a1-3)]Man
# In short: as §1
# [16] = biological target: Man(a1-2)Man(a1-3)[Man(a1-2)Man(a1-6)]Man(a1-6)[Man(a1-2)Man(a1-2)Man(a1-3)]Man(b1-4)GlcNAc(b1-4)GlcNAc
# In short: as §1
# [17] = biological target: Man(a1-2)Man(a1-3)[Man(a1-6)]Man(a1-6)[Man(a1-2)Man(a1-3)]Man(b1-4)GlcNAc(b1-4)GlcNAc
# In short: as §1
# [18] = biological target: Man(a1-2)Man(a1-6)[Man(a1-3)]Man(a1-6)[Man(a1-2)Man(a1-2)Man(a1-3)]Man
# In short: as §1
# [19] = biological target: Man(a1-2)Man(a1-6)[Man(a1-3)]Man(a1-6)[Man(a1-2)Man(a1-2)Man(a1-3)]Man(b1-4)GlcNAc(b1-4)GlcNAc
# In short: as §1
# [20] = biological target: Man(a1-3)[Man(a1-6)]Man
# In short: as §1
# [21] = biological target: Man(a1-3)[Man(a1-6)]Man(a1-6)[Man(a1-2)Man(a1-3)]Man(b1-4)GlcNAc(b1-4)GlcNAc
# In short: as §1
# [22] = biological target: Man(a1-3)[Man(a1-6)]Man(a1-6)[Man(a1-3)]Man
# In short: as §1
# [23] = biological target: Man(a1-3)[Man(a1-6)]Man(a1-6)[Man(a1-3)]Man(b1-4)GlcNAc(b1-4)GlcNAc
# In short: as §1
# [24] = biological target: Man(a1-3)[Man(a1-6)]Man(b1-4)GlcNAc(b1-4)GlcNAc
# In short: as §1
# [25] = biological target: Man(a1-6)Man
# In short: as §1
# [26] = biological target: Man(b1-4)GlcNAc
# In short: as §1
# [27] = biological target: Neu5Ac(a2-3)Gal
# In short: as §1
# [28] = biological target: Neu5Ac(a2-3)Gal(b1-3)GalNAc
# In short: as §1
# [29] = biological target: Neu5Ac(a2-3)Gal(b1-3)GalNAc(b1-3)Gal(a1-4)Gal(b1-4)Glc
# In short: as §1
# [30] = biological target: Neu5Ac(a2-3)Gal(b1-3)GalNAc(b1-4)[Neu5Ac(a2-3)]Gal(b1-4)Glc
# In short: as §1
# [31] = biological target: Neu5Ac(a2-3)Gal(b1-3)GalNAc(b1-4)[Neu5Ac(a2-8)Neu5Ac(a2-3)]Gal(b1-4)Glc
# In short: as §1
# [32] = biological target: Neu5Ac(a2-3)Gal(b1-3)GalNAc6S
# In short: as §1
# [33] = biological target: Neu5Ac(a2-3)Gal(b1-3)GlcNAc
# In short: as §1
# [34] = biological target: Neu5Ac(a2-3)Gal(b1-3)GlcNAc(b1-2)Man(a1-3)[Neu5Ac(a2-3)Gal(b1-3)GlcNAc(b1-2)Man(a1-6)]Man(b1-4)GlcNAc(b1-4)GlcNAc
# In short: as §1
# [35] = biological target: Neu5Ac(a2-3)Gal(b1-3)GlcNAc(b1-3)Gal(b1-3)GlcNAc
# In short: as §1
# [36] = biological target: Neu5Ac(a2-3)Gal(b1-3)GlcNAc(b1-3)Gal(b1-4)GlcNAc
# In short: as §1
# [37] = biological target: Neu5Ac(a2-3)Gal(b1-3)GlcNAc(b1-3)GalNAc
# In short: as §1
binder,measurement,setting,value
B1,glycan array binding signal (z-score),[1],-0.179
same,glycan array binding signal (z-score),[2],-0.181
same,glycan array binding signal (z-score),[3],-0.112
same,glycan array binding signal (z-score),[4],-0.167
same,glycan array binding signal (z-score),[5],-0.173
same,glycan array binding signal (z-score),[6],-0.182
same,glycan array binding signal (z-score),[7],-0.182
same,glycan array binding signal (z-score),[8],-0.185
same,glycan array binding signal (z-score),[9],-0.172
same,glycan array binding signal (z-score),[10],-0.183
same,glycan array binding signal (z-score),[11],-0.184
same,glycan array binding signal (z-score),[12],-0.181
same,glycan array binding signal (z-score),[13],-0.185
same,glycan array binding signal (z-score),[14],-0.179
same,glycan array binding signal (z-score),[15],-0.175
same,glycan array binding signal (z-score),[16],-0.168
same,glycan array binding signal (z-score),[17],-0.184
same,glycan array binding signal (z-score),[18],-0.182
same,glycan array binding signal (z-score),[19],-0.181
same,glycan array binding signal (z-score),[20],-0.183
same,glycan array binding signal (z-score),[21],-0.17
same,glycan array binding signal (z-score),[22],-0.172
same,glycan array binding signal (z-score),[23],-0.186
same,glycan array binding signal (z-score),[24],-0.181
same,glycan array binding signal (z-score),[25],-0.175
same,glycan array binding signal (z-score),[26],-0.184
same,glycan array binding signal (z-score),[27],-0.183
same,glycan array binding signal (z-score),[28],-0.18
same,glycan array binding signal (z-score),[29],-0.173
same,glycan array binding signal (z-score),[30],-0.18
same,glycan array binding signal (z-score),[31],-0.179
same,glycan array binding signal (z-score),[32],-0.177
same,glycan array binding signal (z-score),[33],-0.178
same,glycan array binding signal (z-score),[34],-0.183
same,glycan array binding signal (z-score),[35],-0.18
same,glycan array binding signal (z-score),[36],-0.182
same,glycan array binding signal (z-score),[37],-0.185
